Data published in ChEMBL document CHEMBL1201862, “PubChem BioAssay data set” (2004).
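Dose response: 5 concentrations. Exposure: 48 h. Format: 96-well plates. Endpoint: linear interpolation; highest concentration if not reached. GI50 marks 50% less growth.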 Active and inactive are the calls of the source. Cut-off read from the data, not from the text of the source: active = GI50 up to about 1.1 µM and inactive = higher.

system: NCI-H322M; test: NCI tumour cell line growth inhibition, 48 h

| Structure (SMILES) | GI50 |
| --- | --- |
| CCOC(=O)/C=C(\C)Sc1cc(O)c2ccccc2c1O | inactive: 17.7 µM |
| COc1ccc(O)c(/C=N/CCC/N=C/c2cc(OC)ccc2O)c1 | inactive: 17.8 µM |
| O=C1Cc2ccccc2N1/N=C\c1ccc(O)cc1 | inactive: > 10 µM |
| NCCCNCCCNCCCN | inactive: > 100 µM |
| N#Cc1c(Cl)c2cc([N+](=O)[O-])ccc2n2c1nc1ccccc12 | inactive: 13.5 µM |
| CSc1nc(=O)c(C#N)c(-c2ccccc2)n1C1OC(COC(C)=O)C(OC(C)=O)C(OC(C)=O)C1OC(C)=O (centres undefined) | inactive: > 100 µM |
| O=C1C=C(Nc2ccccc2C(=O)CC(=O)C(=O)Nc2cccc(C(F)(F)F)c2)c2ccccc2C1=O | inactive: 46.3 µM |
| CCC(C=O)P1(=O)OC(C)(C)CN1C(C)(C)C (centres undefined) | inactive: > 100 µM |
| FC(F)(F)c1cc(C2SCc3nc4ccccc4n32)cc(C(F)(F)F)c1 (centres undefined) | inactive: > 100 µM |
| c1ccc(C[n+]2cccc(-c3cc4ccccc4[nH]3)c2)cc1 | inactive: 42 µM |
| O=c1cccc(C2CC(CO)C3CCCCN3C2)[nH]1 (centres undefined) | inactive: > 100 µM |
| O=C(/C=C/c1ccccc1)Nc1ccccc1SCCCCl | inactive: 12.1 µM |
| CC1(C)C(=O)N(CCCCCCN2C(=O)C(C)(C)c3ccccc32)c2ccccc21 | inactive: > 100 µM |
| CC(C)c1cccc(C(C)C)c1NC(=O)C(=O)C1SC(=S)NC1=O (centres undefined) | inactive: > 100 µM |
| CS(=O)(=O)c1ccc(C(=O)O[C@@H]2C(=O)N3CC[C@H]4OC(O)[C@@H]2[C@H]43)cc1 (some centres undefined) | inactive: > 100 µM |
| COc1ccc(NC(=S)NC(=O)c2ccc3c(c2)Sc2ccccc2O3)c([N+](=O)[O-])c1 | inactive: 30.3 µM |
| CC(C)(Oc1ccc2c(=O)cc(-c3ccc(Cl)cc3)oc2c1)C(=O)Nc1c(Cl)cccc1Cl | inactive: > 100 µM |

| Structure (SMILES) | GI50 |
| --- | --- |
| C=C[C@@H](OCOCC[Si](C)(C)C)[C@@H](CC)OC(CCCOC(=O)C(C)(C)C)OC (some centres undefined) | inactive: 82.4 µM |
| NCCCCCNOCCCN | inactive: > 100 µM |
| COC(=O)c1c(O)ccc2c1c1c(n2Cc2cccc(C)c2)C(=O)c2ccccc2C1 | inactive: 15.5 µM |
| N#Cc1c(NN)nc(NN)c(C#N)c1-c1ccccc1 | inactive: > 100 µM |
| Cc1c(C(=O)/C=C/c2ccccc2O)c(=O)n(-c2ccccc2)n1C | inactive: 22 µM |
| COc1cc(C2c3cc4c(c(O)c3C(=O)C3CCC(=O)N32)OCO4)cc(OC)c1OC (centres undefined) | inactive: > 100 µM |
| COc1cc(Br)c(/C=N\c2cccc3ccc(OS(=O)(=O)c4ccc([N+](=O)[O-])cc4)cc23)cc1OC | inactive: > 100 µM |
| CC(=O)c1ccc(-c2oc(-c3ccccc3)cc2-c2ccc3c(c2)OCO3)s1 | inactive: > 100 µM |
| Cc1nnc(N)nc1/C=C\c1cccs1 | inactive: 23.5 µM |
| O=C(O)c1ccc(Nc2nc3nn(Cc4ccccc4)cc3c(=O)s2)cc1 | inactive: > 100 µM |
| [O-][S+](c1ccccc1)C1CC2CC3(CCC21O)OCCO3 (centres undefined) | inactive: > 100 µM |
| CCOC(=O)c1cc(=O)oc2c1N(C)c1ncccc1N2 | inactive: > 100 µM |
| COc1c(Cl)cc(S(=O)O)cc1Cl | inactive: > 100 µM |
| CC(=O)OCC(OC(C)=O)C1C[C@H]2O[C@@H]3[C@H](C[C@H]2O1)O[C@@]1(C[C@@H]3C)C[C@H](C)[C@@H]2O[C@]3(C[C@@H]2O1)C[C@H]1O[C@H]2[C@H](C)[C@H]4OC(=O)CC5CC[C@H]6OC7[C@H]8O[C@]9(CC[C@H]%10CC(O)(CO)[C@H](CC[C@H]%11C[C@@H](C)C(O)(CO)C(C[C@@H]4O[C@H]2C[C@H]1O3)O%11)O%10)CC8O[C@@H]7[C@@H](O9)[C@H]6O5 (some centres undefined) | active: 0.00635 µM |
| CO[C@H]1CC[C@]2(C)C3=CC[C@@]4(C)C(CC[C@@H]4C(C)CC[C@@H](C)C(C)C)C(=CCC2C1)O3 (some centres undefined) | inactive: > 25 µM |
| COC1C(O)=C2C(=O)O/C(C)=C/C=C/C=C/C=C\CC(c3ccccc3)NC(=O)\C=C/C=C\C=C\C=C\[C@@]2(C)[C@@H]1O (some centres undefined) | active: 0.0776 µM |
| Nc1ccc(-c2nc3cc(F)ccc3s2)cc1I | inactive: 9.59 µM |
